The supplement of paper PMC3334620
Over roughly 33,000 sequences, “E-score (-0.5 to 0.5)” has its median near -0.04; the highest 2% begin near 0.36. The list shows a part of the results.

Biological target: T1, Hmlalpha2 (UniProt P0CY09)
T1 sequence: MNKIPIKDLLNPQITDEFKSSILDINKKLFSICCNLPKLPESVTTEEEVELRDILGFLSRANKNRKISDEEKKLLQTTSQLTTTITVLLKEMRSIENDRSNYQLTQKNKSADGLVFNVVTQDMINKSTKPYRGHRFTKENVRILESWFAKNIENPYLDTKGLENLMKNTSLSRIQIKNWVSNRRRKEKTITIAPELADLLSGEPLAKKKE
Assay: PBM E-score (8-mer binding enrichment) (E-score (-0.5 to 0.5)); higher = stronger / more preferred TF binding; most listed sequences are background and not binding sites
Conditions: protein concentration: 200 nM; construct: GST-full length
Outline: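 PURExpress in vitro transcription/translation supplied GST-tagged yeast transcription factors, either full-length or DNA-binding domain. Applied at about 100-200 nM to universal all-10-mer Agilent arrays double-stranded by primer extension, the bound protein was detected with fluorescent anti-GST. E-scores, modified Wilcoxon-Mann-Whitney statistics, were given by the Universal PBM Analysis Suite to ungapped eight-base words pooled with their reverse complements after masliner normalisation.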

Row | Sequence | PBM E-score
1 | GCCCCCGA | -0.405
2 | ATTTCTTA | 0.124
3 | ACCGATCT | -0.148
4 | ATCTTCCG | -0.0113
5 | AAGCATCG | -0.0225
6 | CGATGAAG | -0.00363
7 | ATACAAAT | 0.262
8 | GGCCTCCA | -0.198
9 | GTTGATAA | 0.307
10 | GAGAATGA | -0.0686
11 | ACGGCTTC | -0.16
12 | CTGCAGCC | -0.141
13 | CGACCACG | 0.0469
14 | GTCCGCGA | -0.175
15 | ATCGCCGC | -0.0645
16 | AAGGTGCC | -0.157
17 | AGTATGGC | -0.0371
18 | CTGACAAC | 0.0926
19 | ATCAGGAC | -0.205
20 | AGGTTTCG | -0.185
21 | AAGCTGAA | -0.0116
22 | GGAGCACC | -0.351
23 | ATCGAGTG | 0.12
24 | ACTTGCCG | -0.0643
25 | GTGTGACA | 0.0967

Row | Sequence | PBM E-score
26 | GGACGGCA | 0.00374
27 | CGGATCGC | -0.185
28 | AACTTTCT | -0.0947
29 | ATTTCTCC | -0.11
30 | ATAGTAGC | -0.0215
31 | CCATTTTA | 0.148
32 | GGAAGGCA | -0.302
33 | AATGCGCC | -0.0407
34 | CGTGGCCA | -0.103
35 | AACGTATA | 0.227
36 | CGCATGAG | -0.222
37 | ATTACAAT | 0.385
38 | ATTCGTCG | 0.017
39 | TGGTGTAA | 0.329
40 | CACTCCCA | -0.129
41 | AACTAAAA | 0.159
42 | AAACTACG | 0.0854
43 | CGGAAAAC | 0.128
44 | CATAGATC | 0.00885
45 | CGTTCGAA | 0.0425
46 | CCCCTCGC | -0.363
47 | AATGCAGA | 0.0193
48 | GGACTACA | 0.161
49 | GCTGATAA | 0.154
50 | ATGGGTAC | 0.114

Row | Sequence | PBM E-score
51 | TAAAGCGA | -0.0154
52 | AGTTTAGG | -0.0184
53 | AACCATCT | -0.0719
54 | CACGATGC | 0.0908
55 | GAGCGGTA | -0.0188
56 | CTTCGTCC | -0.187
57 | ACAAAAGA | 0.115
58 | CGTCCGTC | -0.33
59 | AGTCCGCA | -0.162
60 | TCTTGTCA | 0.219
61 | TAAATTTA | 0.33
62 | CGATAATA | -0.0285
63 | GATCACTA | -0.0729
64 | AACGTCCG | -0.175
65 | ACTACGAA | 0.107
66 | GTTCCCTA | 0.0562
67 | GCTACCTA | 0.0181
68 | GTGATGCA | 0.0568
69 | GTGGAGAA | -0.195
70 | TACGCGTA | 0.409
71 | CCTTCGCA | -0.15
72 | CGGGTTGA | -0.0908
73 | CCTGGAAA | -0.14
74 | AAACGGCC | -0.0779
75 | CTCAGCAC | 0.0215

Row | Sequence | PBM E-score
76 | CACCAGCA | -0.128
77 | ACGCAACA | 0.349
78 | GATCACCA | -0.16
79 | CCGGGGTC | -0.0429
80 | ATCAAGGC | -0.0177
81 | ACATCCGT | 0.0696
82 | ATGGCTGG | -0.104
83 | ATGAGAGC | -0.0514
84 | GTATGACA | 0.22
85 | ATCATTGA | 0.16
86 | CTTCCGCC | -0.279
87 | AGGCACGC | -0.188
88 | TTAACGAA | 0.233
89 | GAACTTAA | -0.00724
90 | CCACTATC | -0.196
91 | GTTTGCTA | 0.109
92 | GTAACATA | 0.355
93 | CTTGTAGA | 0.253
94 | CGTCTATC | 0.0314
95 | CAGTTTCA | -0.0961
96 | CGAACTAG | -0.0887
97 | GTACCCAC | -0.0853
98 | CATAGTAC | -0.0469
99 | GAACCCTC | -0.223
100 | GGTTCCGA | -0.176

Row | Sequence | PBM E-score
101 | TTCCGCAA | 0.0155
102 | AGGCGCAA | -0.0755
103 | ATCCGAAG | -0.159
104 | ATATCCCG | -0.0536
105 | ATCACCAA | -0.0593
106 | CCCGGACG | -0.198
107 | AGACCGCC | -0.118
108 | CCCAGAGG | -0.434
109 | CGCATTTA | 0.213
110 | ATCCCACC | -0.101
111 | TAGGCGGA | 0.0174
112 | TTGCGCAA | 0.133
113 | AGCAGTGC | -0.118
114 | CAACCTTG | 0.0793
115 | CGGTGGGC | -0.262
116 | AATTTACT | 0.296
117 | ACATCGAC | 0.112
118 | TAGGGTCA | -0.141
119 | CTCAGATA | -0.0173
120 | AACTTCGA | 0.085
121 | AATAACAT | 0.412
122 | AGAACGTG | 0.116
123 | CAGGCGCA | -0.114
124 | AAGTATGT | 0.286
125 | CTTATTGC | -0.172

Row | Sequence | PBM E-score
126 | GATTAGCC | -0.0296
127 | CAATGCCG | -0.0554
128 | AAATACGG | 0.0784
129 | TATTCTCA | 0.113
130 | CTTCGACC | -0.167
131 | AATTTGCC | -0.173
132 | ATACCAAT | 0.033
133 | ATAAGAAC | 0.21
134 | CACATGAA | 0.237
135 | CTAAGAAC | -0.0411
136 | TCTTCGAA | -0.118
137 | ATCAGCGG | -0.205
138 | AACTTATA | 0.219
139 | ACGAGTAG | -0.0379
140 | CAGCACGG | -0.0953
141 | CCCTAGTC | -0.313
142 | AGGCTCTC | -0.123
143 | CCACCGTA | -0.145
144 | CTGACGCA | -0.203
145 | GAAGGCTC | -0.28
146 | CCGTGACC | -0.278
147 | CTGTGCAA | 0.0797
148 | GCAGTGAA | 0.0998
149 | AACGGTGT | -0.0157
150 | CAGTACTC | -0.222

Row | Sequence | PBM E-score
151 | CACACATA | 0.214
152 | CCTGAGCG | -0.14
153 | TACGTCAA | 0.116
154 | AACCCAGA | -0.0627
155 | ACCATTAA | 0.0917
156 | ATTCCTTA | -0.034
157 | AACTAATG | 0.232
158 | ACGGTAAT | -0.0352
159 | AGTGATTC | 0.0533
160 | ACATCAGA | 0.0333
161 | AGCATTCA | -0.193
162 | AAAGGCCC | -0.177
163 | GATGCATC | 0.0847
164 | ATCCATAA | -0.0296
165 | GGTCACAA | -0.0816
166 | GTAGAGTA | 0.183
167 | GTCCCAAC | 0.0725
168 | GACTAATC | -0.156
169 | ACTAATTC | 0.203
170 | CAAGGTGC | 0.0442
171 | AACCTGGC | 0.0313
172 | CAGTGAAG | -0.0557
173 | CCCCTGGC | -0.319
174 | CGAGATGA | -0.109
175 | ATCTTGGG | -0.051

Row | Sequence | PBM E-score
176 | AAACGCCG | 0.174
177 | AGTCTAAC | -0.0244
178 | ACCTCTGA | -0.177
179 | GAGAGGGC | -0.278
180 | ACCGAATG | 0.0693
181 | AACCATGT | 0.368
182 | GCAACACA | 0.167
183 | CTCGCCAC | -0.153
184 | CCCAAGGA | -0.282
185 | CATTTAAC | 0.325
186 | GTATCGAC | 0.0754
187 | ATTCACCG | -0.119
188 | CAACGGGG | -0.137
189 | CCGTCAAG | -0.166
190 | AACAATAA | 0.206
191 | ATCACCAT | 0.0619
192 | ATCACATC | -0.00733
193 | AATCTGTA | 0.186
194 | GTCCTACA | 0.182
195 | GGACGTTA | 0.191
196 | ACTTGATC | -0.0376
197 | AGCATAAG | -0.114
198 | AGACTGCT | -0.256
199 | AGATCTGC | 0.0996
200 | GCGTTCCC | -0.135

Row | Sequence | PBM E-score
201 | GGTATCCA | -0.112
202 | AAACATCT | 0.202
203 | ACATCCTG | 0.195
204 | GTTGGTCA | 0.0634
205 | AACTAGCA | -0.116
206 | AGTAATCG | 0.23
207 | AGCATTGC | 0.0222
208 | ACGTTTCA | -0.00282
209 | CGGCAAAG | -0.188
210 | GGGTACAA | 0.0999
211 | CGACCGGC | -0.152
212 | ACCATCAC | -0.0992
213 | GCGAACTA | -0.101
214 | AAAATCCA | 0.095
215 | AATAGGCG | -0.0915
216 | GACTACCC | -0.169
217 | CGCCTACC | -0.129
218 | AACTCTGT | 0.1
219 | GCGTAAGA | 0.249
